This is one part of the list.

The assay relates to PfHDP1 homeodomain (GST-tagged). Briefly: gcPBM binding intensity (ln(normalized median fluorescence intensity)); higher = stronger DNA binding. The gist of the method:
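The highest Masliner-normalised natural-log median intensity across replicate spots of either probe orientation is reported as binding intensity. GST-tagged P. falciparum DNA-binding domains expressed in E. coli were applied for 1 h to an Agilent 4 × 180k array of primer-extended double-stranded 36-bp intergenic genomic probes plus negative controls, and bound protein was detected with Alexa488 anti-GST antibody and scanned at 488 nm.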
On to “ATTTTTTTTTTTTTTTTTTTTTTTTTTTTTTTATGC [CACACA_negctrl_site1018]”, for which the “gcPBM binding intensity (ln)” value amounted to 6.02.

As to TTTTTTTTTTTTGTAGTGCAAATTAAAAATATATGT, the “gcPBM binding intensity (ln)” value was 9.

As to “ATTTTTTTTAAACGAAGTACAATTTGTGCATTGGAA [XGTACX_site8109]”, the “gcPBM binding intensity (ln)” value was determined as 10.4.

Consider “TATATATATATATATGTATGCATGTCCTTTTTTATT [TGCATGCA_site344]”, for which the “gcPBM binding intensity (ln)” value was determined as 9.46.

“TGTTTATCATATTTGTGTCCTCATTTTTTAGTATCA [XGTACX_site947]”: the “gcPBM binding intensity (ln)” value is 6.62.

Turning to “TAATATTTTATTTTTGTTGTGGATCCAAAAAAAAAA [CACACA_negctrl_site846]”, the “gcPBM binding intensity (ln)” value worked out at 6.13.

For “CTATATATTTAAAAAAGTACAAATATAAAAATATAT [XGTACX_site676]”, the “gcPBM binding intensity (ln)” value stood at 6.65.

For “TGTTTACACTTTTTTTGTACACATAATTTTATTTGA [XGTACX_site3760]”, the “gcPBM binding intensity (ln)” value worked out at 6.98.

With “AAAAAAAAAAAAAACACACACATATAACATATTTAA [CACACA_site6745]”, the “gcPBM binding intensity (ln)” value is 6.56.

Consider “TATTCTAGTCTGCTTACACACATATTTATATTTATA [CACACA_site7432]”, for which the “gcPBM binding intensity (ln)” value came to 7.53.

With “AAAAAAAAAAAAAATACACACAAACACAAATTAAAT [CACACA_site5982]”, the “gcPBM binding intensity (ln)” value was 6.76.

Consider “GTAATATTATAATATACACACATAGAATATATATAT [CACACA_site413]”, for which the “gcPBM binding intensity (ln)” value was determined as 8.01.

For “AAGATCATATATTCGTGGGTATAAAAAGTTATAATA [TGCATGCA_negctrl_site439]”, the “gcPBM binding intensity (ln)” value was found to be 6.28.

Take “ACAAAAAAAAAGGAAACACACAAAAAAAAAAAATAA [CACACA_site3523]”: the “gcPBM binding intensity (ln)” value turned out to be 6.16.

“ACTATATTTCTATAATGTACAAAAATAAATCATATG [XGTACX_site3337]”: the “gcPBM binding intensity (ln)” value was found to be 6.22.

As for “ACCTATAAAAAATAATGTACAGGAAGAAATATAAGG [XGTACX_site5822]”, the “gcPBM binding intensity (ln)” value turned out to be 6.99.

Consider “TTTATTATCAAGATTGCACACCCTTATGAACTTTTT [CACACA_site3166]”, for which the “gcPBM binding intensity (ln)” value is 9.35.

Consider “TAATTTACACCTACGTGTACACACAAAAATATGTTT [XGTACX_site1868]”, for which the “gcPBM binding intensity (ln)” value turned out to be 7.19.

As to “TGTATAAGGTTTTTACGTTTTGAAGGATGTATTGTT [CACACA_negctrl_site1245]”, the “gcPBM binding intensity (ln)” value is 6.41.

Consider “TAGGTCATATTTTTTGCACACAAAAAAAAATATAAA [CACACA_site3380]”, for which the “gcPBM binding intensity (ln)” value amounted to 9.79.

“CACCTCAATATTCACATACACACAATATCATCGAAG [CACACA_site1675]”: the “gcPBM binding intensity (ln)” value came to 6.85.

For “TTTTTCCAATCAGATGCATGTTACTATATTTGGTTC [TGCATGCA_site52]”, the “gcPBM binding intensity (ln)” value amounted to 6.66.

In the case of “TATCATTTTGAAGTATGTACTTATTTTATTAAAATA [XGTACX_site7784]”, the “gcPBM binding intensity (ln)” value was 6.66.

Consider “TAAATACATAAATACACACACATATATATATATATA [CACACA_site5549]”, for which the “gcPBM binding intensity (ln)” value was 9.43.

Consider “ATTATATTAAAATATTCACACACTAACGTAAATCAT [CACACA_site8887]”, for which the “gcPBM binding intensity (ln)” value worked out at 6.25.

For the sequence “GTAAGTATATATAATAGTACATATATATTAATATAT [XGTACX_site4314]”, the “gcPBM binding intensity (ln)” value was 6.43.

As for “TACATAATTTTAATCACACACAAACAAACACATACA [CACACA_site194]”, the “gcPBM binding intensity (ln)” value was 7.27.

In the case of “TTTTGTTCATACAAATTGGAACAAGACAAAAATATA [XGTACX_negctrl_site327]”, the “gcPBM binding intensity (ln)” value is 6.56.

With “AAGGAAAAAACAAATACACACAAAAACGCATTATAA [CACACA_site3466]”, the “gcPBM binding intensity (ln)” value came out at 6.84.

Turning to “ATGAACTTATTTTAGTGTACTAAAAAATATGACTTC [XGTACX_site470]”, the “gcPBM binding intensity (ln)” value worked out at 6.18.

For “GGGAGGATATTACACAGTACCCAGGAAATCTACGGA [XGTACX_site4874]”, the “gcPBM binding intensity (ln)” value was 6.69.

Regarding “TATGTTCCGAAGGTTGTACACACATAGAAATATACA [CACACA_site9285]”, the “gcPBM binding intensity (ln)” value turned out to be 6.85.

Turning to “TTTTTTTTTTTTGTAACATGCAAACAACAATATGGG [TGCATGCA_site695]”, the “gcPBM binding intensity (ln)” value worked out at 6.62.

Turning to “ATGTAATTGTATACATGTACGCAAACACAAAAGCAT [XGTACX_site6771]”, the “gcPBM binding intensity (ln)” value is 6.88.

As to “TATATATACATAAAAACATGCAATATATACACATTA [TGCATGCA_site444]”, the “gcPBM binding intensity (ln)” value was determined as 6.59.

Take “TACTTCGATAATAATCGTACATATATATTGTATTTA [XGTACX_site5700]”: the “gcPBM binding intensity (ln)” value was 6.55.

As to “CAAAAAATACGATGTTGTACTATGTATTCCTGATGT [XGTACX_site246]”, the “gcPBM binding intensity (ln)” value amounted to 6.06.

For the sequence “AACTTTTTTATATGCACACATAAACAAGGATATATA [CACACA_site2874]”, the “gcPBM binding intensity (ln)” value was found to be 10.3.

With “AAAAAAAAAAAAAACACACACACACCCATACACATA [CACACA_site2860]”, the “gcPBM binding intensity (ln)” value is 6.93.

Turning to “TATCAAAATAAATGCACACAAATTGCACATATCTAT [CACACA_site1097]”, the “gcPBM binding intensity (ln)” value amounted to 10.7.

On to “ATTTATATGTAGATGTGTACTTAATTGTAATGTGTT [XGTACX_site6422]”, for which the “gcPBM binding intensity (ln)” value amounted to 6.54.

Turning to “CAAAAACATACCTACACACACAATATGTATAAATAA [CACACA_site7617]”, the “gcPBM binding intensity (ln)” value came out at 6.58.

On to “TTGTTTTGCTAAAAATGTACTCTATATAAAAGCTTT [XGTACX_site4027]”, for which the “gcPBM binding intensity (ln)” value came out at 6.37.

Turning to “TATATATATTATATATGTACACATATGTGAGAATGA [XGTACX_site2992]”, the “gcPBM binding intensity (ln)” value was found to be 7.24.

For the sequence “AATTAAAATTTTTTTTTTTTTTTTTTTTTTCTATTA [CACACA_negctrl_site1585]”, the “gcPBM binding intensity (ln)” value was determined as 5.48.

In the case of “AAAAATAAAAAAAACACACATACCTTATTTTTGTTC [CACACA_site2634]”, the “gcPBM binding intensity (ln)” value came out at 7.28.

Turning to “AAATTGATATTATATATATATATATATATATATATA [GTGCAC_negctrl_site482]”, the “gcPBM binding intensity (ln)” value came out at 9.29.

Take “ATTTAAAAAACTTTTAGCAAAAAAAAAAAATAATAA [TGCATGCA_negctrl_site191]”: the “gcPBM binding intensity (ln)” value was 6.31.

As for “TATATATAGAAACACACACACAAAAAAAAAAAAAAA [CACACA_site1506]”, the “gcPBM binding intensity (ln)” value came to 6.45.

Turning to “TATATATCCTTCTATGCATGCATATGGATAGATTTC [TGCATGCA_site58]”, the “gcPBM binding intensity (ln)” value stood at 6.24.

As to “TGAATTTCAAAACAGTGTACATTAATATATATATAA [XGTACX_site7951]”, the “gcPBM binding intensity (ln)” value amounted to 6.71.

Take “ATATTTATGACCGTACGTACCTAACAATACAATCAA [XGTACX_site4511]”: the “gcPBM binding intensity (ln)” value was 6.79.

As to “ATAATATATATATGTAGTACGTATATAATTTTAATA [XGTACX_site5228]”, the “gcPBM binding intensity (ln)” value was 6.39.

For “TGTTATATATTATATACATGCACAAAAGCAACACAA [TGCATGCA_site1009]”, the “gcPBM binding intensity (ln)” value was 8.51.

For the sequence “TTCGACGAGAGCAAGTGTACTCTTGAATAATTTATA [XGTACX_site7613]”, the “gcPBM binding intensity (ln)” value came out at 6.33.

For the sequence “ATTTTATTTTTTGAGTGTACTAGTTCAACAACTCCG [XGTACX_site8600]”, the “gcPBM binding intensity (ln)” value was found to be 6.52.

The values above are taken from the supplement of paper PMC11417369.
